Source: the supplement of paper PMC7826260
The other results are listed elsewhere or left out. The data describe in vitro nicking of single-stranded DNA by Rep domains for 1 h at 37 °C with 3 µM enzyme; only the middle of the 90-letter strands is printed. Uncut reads are compared with the no-enzyme pool on a log2 scale; strong cutting gives strongly negative numbers. There is no active / inactive call. Reads are scaled to the total, so uncut sequences can rise above 0 when many others are cut.

What was measured:
Assay in all cases: uncleaved DNA left, log2 of reads against the no-enzyme library (log2 ratio); higher = less cleavage (more negative = more Rep cleavage of the k-mer); sequences stand for … in CTCGTCCG…ACCGGAGA
[1] = tested on: T1, Rep nickase domain of Muscovy duck circovirus
T1 sequence (residues 1-111, tag not shown): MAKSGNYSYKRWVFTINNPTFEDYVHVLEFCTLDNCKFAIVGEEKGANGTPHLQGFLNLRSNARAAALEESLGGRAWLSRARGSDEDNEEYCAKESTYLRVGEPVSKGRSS
Description: (§1)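 A pool of 90-nt single-stranded DNAs with seven random bases just before the constant AC of the nick site (name = the seven bases) was cut by 3 µM recombinant His6-SUMO-tagged Rep nickase domain (300 nM DNA, 50 mM HEPES pH 8.0, 50 mM NaCl, 1 mM MnCl2, 1 h, 37 °C, three replicates). Uncut DNA was amplified and sequenced.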

[2] = tested on: T2, Rep nickase domain of banana bunchy top virus
T2 sequence (residues 1-94, tag not shown): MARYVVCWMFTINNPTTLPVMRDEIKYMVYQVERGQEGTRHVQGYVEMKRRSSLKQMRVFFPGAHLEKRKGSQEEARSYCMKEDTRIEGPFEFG
Description: as §1

[3] = tested on: T3, Rep nickase domain of cabbage leaf curl virus
T3 sequence (residues 1-116, tag not shown): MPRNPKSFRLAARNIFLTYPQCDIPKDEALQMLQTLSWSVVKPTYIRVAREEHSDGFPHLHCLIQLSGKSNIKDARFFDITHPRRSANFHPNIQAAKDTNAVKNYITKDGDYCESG
Description: as §1

[4] = tested on: T4, Rep nickase domain of chickpea chlorotic dwarf virus
T4 sequence (residues 1-124, tag not shown): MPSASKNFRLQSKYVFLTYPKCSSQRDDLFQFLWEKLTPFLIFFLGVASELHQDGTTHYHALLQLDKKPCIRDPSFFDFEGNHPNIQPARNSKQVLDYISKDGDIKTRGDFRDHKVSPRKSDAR
Description: as §1

[5] = tested on: T5, Rep nickase domain of faba bean necrotic yellows virus
T5 sequence (residues 1-98, tag not shown): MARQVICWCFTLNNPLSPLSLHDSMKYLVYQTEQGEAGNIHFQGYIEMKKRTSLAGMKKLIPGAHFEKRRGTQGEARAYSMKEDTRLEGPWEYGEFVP
Description: as §1

[6] = tested on: T6, Rep nickase domain of maize striate mosaic virus
T6 sequence (residues 1-117, tag not shown): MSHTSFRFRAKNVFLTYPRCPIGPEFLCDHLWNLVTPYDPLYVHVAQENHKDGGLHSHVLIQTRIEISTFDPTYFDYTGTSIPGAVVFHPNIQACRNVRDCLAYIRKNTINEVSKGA
Description: as §1

[7] = tested on: T7, Rep nickase domain of porcine circovirus 2
T7 sequence (residues 2-116, tag not shown): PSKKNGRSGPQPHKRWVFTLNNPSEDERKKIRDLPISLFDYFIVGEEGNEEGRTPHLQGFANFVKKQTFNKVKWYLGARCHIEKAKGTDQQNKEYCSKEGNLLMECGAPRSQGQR
Description: as §1

[8] = tested on: T8, Rep nickase domain of tomato golden mosaic virus
T8 sequence (residues 1-124, tag not shown): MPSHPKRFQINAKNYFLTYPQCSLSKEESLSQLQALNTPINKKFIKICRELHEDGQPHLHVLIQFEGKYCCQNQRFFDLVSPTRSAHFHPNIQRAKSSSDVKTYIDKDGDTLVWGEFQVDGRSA
Description: as §1

[9] = tested on: T9, Rep nickase domain of tomato yellow leaf curl virus
T9 sequence (residues 1-136, tag not shown): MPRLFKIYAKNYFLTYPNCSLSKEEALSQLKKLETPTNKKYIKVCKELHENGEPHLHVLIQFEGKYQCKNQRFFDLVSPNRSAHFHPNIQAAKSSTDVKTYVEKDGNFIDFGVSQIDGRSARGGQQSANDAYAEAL
Description: as §1

[10] = tested on: T10, Rep nickase domain of wheat dwarf virus
T10 sequence (residues 1-137, tag not shown): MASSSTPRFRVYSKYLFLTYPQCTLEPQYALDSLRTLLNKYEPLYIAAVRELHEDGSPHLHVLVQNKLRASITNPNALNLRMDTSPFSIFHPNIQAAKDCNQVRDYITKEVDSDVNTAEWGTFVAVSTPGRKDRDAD
Description: as §1

Row | Sequence | uncleaved DNA left (log2) [1] | uncleaved DNA left (log2) [2] | uncleaved DNA left (log2) [3] | uncleaved DNA left (log2) [4] | uncleaved DNA left (log2) [5] | uncleaved DNA left (log2) [6] | uncleaved DNA left (log2) [7] | uncleaved DNA left (log2) [8] | uncleaved DNA left (log2) [9] | uncleaved DNA left (log2) [10]
1 | TCGTCGC | -0.111 | -0.0227 | -0.644 | -0.512 | -0.0657 | -1.03 | -0.00807 | -0.306 | -0.122 | -0.138
2 | ACTAGGG | -0.0113 | -0.00838 | -0.667 | -0.442 | 0.0297 | -0.956 | 0.183 | -0.0733 | 0.00948 | -0.0169
3 | ATGGTTA | 0.0556 | 0.0586 | -0.0762 | -0.108 | -0.00346 | 0.723 | 0.0608 | 0.0798 | -0.11 | 0.0149
4 | TGGCCCC | 0.107 | 0.106 | 0.45 | 0.917 | -0.175 | 1.31 | 0.0676 | 0.0238 | 0.109 | 0.0238
5 | CTGTGAG | 0.0734 | -0.0992 | -0.673 | -0.253 | 0.0849 | -1.09 | 0.0353 | -0.126 | 0.139 | -0.0659
6 | GCGCCGG | 0.0363 | 0.0598 | 0.209 | 0.73 | -0.154 | 1.3 | 0.104 | -0.00799 | -0.195 | -0.00982
7 | CAGGCTC | -0.154 | -0.0891 | -0.083 | -0.0809 | -0.0436 | 0.0542 | -0.114 | -0.0394 | -0.168 | -0.116
8 | CGTTTAA | 0.0741 | 0.0962 | 0.0406 | -0.0139 | 0.0196 | -0.184 | 0.0446 | -0.0276 | 0.0205 | 0.0237
9 | CACGACC | 0.0184 | -0.00552 | -0.0619 | 0.168 | 0.025 | -0.495 | -0.0393 | 0.0848 | -0.0927 | 0.0469
10 | CGCGAAA | -0.0354 | -0.117 | -0.303 | -0.261 | -0.06 | -0.647 | 0.0207 | -0.0479 | 0.0306 | -0.0462
11 | AAGGTAT | -0.0878 | -0.0277 | 0.152 | 1.49 | 0.0211 | 1.89 | 0.104 | 0.0725 | -0.26 | 0.0181
12 | AGTTCAA | 0.0318 | 0.192 | 0.206 | 0.324 | -0.000157 | -0.159 | -0.415 | 0.0155 | 0.0847 | 0.179
13 | TTCTAGA | -0.0839 | -0.139 | 0.124 | 0.0903 | -0.134 | -0.198 | 0.0306 | -0.0795 | -0.00403 | -0.0227
14 | CATATTT | -0.462 | -3.52 | -0.557 | -3.35 | -0.0733 | -0.9 | -2.86 | -0.121 | -0.195 | -0.194
15 | TTTGTAT | -0.0389 | -0.121 | 0.142 | -0.645 | -0.0864 | -0.61 | -0.183 | -0.2 | -0.104 | -0.142
